Measurements as given in ChEMBL document CHEMBL4888484, “Replenishing the malaria drug discovery pipeline: Screening and hit evaluation of the MMV Hit Generation Library 1 (HGL1) against asexual blood stage Plasmodium falciparum ,using a nano luciferase reporter read-out” (2022).
The campaign covered roughly 150,000 compounds. About 540 (0.36%) showed an effect of 50% or more. The list shows a part of the results.

What follows are compounds tested on Plasmodium falciparum (assay: Primary screen in NF54 nanoGlo assay, in single point, at 2uM, 72h; a lower Z score goes with more inhibition). Conditions: timepoint 72 hour.
Assay type: functional, Erythrocyte

| Structure (SMILES) | % Inhibition | Z score |
| --- | --- | --- |
| Cc1n[nH]c(C)c1CNCC(=O)NCc1ccco1 | -3% | 0.58 |
| Cc1nn(Cc2ccccc2)c(Cl)c1CN1CCC[C@H]1C(=O)O | -2% | 0.26 |
| CCc1cc(C(=O)Nc2cccc(F)c2)c2c(C3CC3)nn(-c3ccccc3)c2n1 | 30% | -3.37 |
| Cc1ccc(NC(=O)Cn2cnc3nc(N4CCCC4)sc3c2=O)cc1Cl | -10% | 1.64 |
| O=C(CNc1ccc(Cl)cc1F)NC[C@H]1CCS(=O)(=O)C1 | -2% | 0.25 |
| O=C(Cn1nc(N2CCCCCC2)c2ccccc2c1=O)Nc1ccc2c(c1)OCCO2 | -12% | 1.79 |
| O=C(NCC(F)F)Nc1ccncc1F | -1% | 0.13 |
| CCNC(=O)N(Cc1ccc(OC)c(OS(=O)(=O)c2ccc(F)cc2)c1)Cc1ccco1 | -21% | 3.03 |
| CC1CC(N(C)CCn2cccn2)CCN1Cc1ccccc1 (stereo not drawn) | -2% | 0.21 |
| CCOC1CC(CO)(NCc2ccc(C)o2)C1(C)C (stereo not drawn) | -11% | 1.26 |
| Cc1noc(-c2ccc3c(c2)OCO3)c1C(=O)NCCC(c1ccccc1)c1ccccc1 | -8% | 0.81 |
| COc1ccc(C(=O)Nc2cnn(CC(=O)N3CCOC(C)(C)C3)c2)nc1 | -13% | 1.58 |
| Cc1noc2ncnc(N[C@@H](Cc3ccccn3)c3ccccc3)c12 | -1% | 0.12 |
| CC(CNC(=O)C(=O)NC(C)CCc1ccccc1)Cc1ccccc1 (stereo not drawn) | -11% | 1.26 |
| Cc1cc(C)c(CN[C@@H]2c3ccccc3C[C@@H]2O)c(C)c1 | 2% | -0.21 |
| CC1CCN(Cc2ccc(C(=O)N[C@H]3CC(=O)N(C)C3)o2)CC1 | 14% | -1.89 |
| COc1ccc(NC(=O)CN2CCN(c3ccccc3F)C2=O)cc1Cl | 1% | -0.08 |
| CC(C)(OCC(=O)N1Cc2ccc(O)cc2C2(CC2)C1)C(F)(F)F | -2% | 0.22 |
| CCN(CC)CC1(n2cnc3cc(C)ccc3c2=O)CC1 | 7% | -1.38 |
| CC1CCCCC1CN1CCC(C#N)CC1 (stereo not drawn) | -3% | 0.48 |
| Cc1nnc2ccc(N3CCCCCCC3)nn12 | 6% | -0.66 |
| COc1ccc(-c2cn3c4ccccc4nc3n2CCCN2CCCC2)cc1 | -1% | 0.14 |
| CC(=O)N[C@@H]1CC[C@H]2CCOc3ccccc3C(=O)N3CCN(C4CCC(C)CC4)C[C@H]3C(=O)NC[C@H]1O2 (stereo partly drawn) | 7% | -0.83 |
| CNS(=O)(=O)[C@H]1CCCN(Cc2cccc3nsnc23)C1 | -14% | 1.53 |
